# Test results from the supplement of paper PMC8728848.
# This is one part of the list.
# Experiments:
# Test in all cases: glycan array binding signal (z-score within array); higher = stronger binding
# Details in all cases: glycan notation: IUPAC condensed, linker removed
# [1] = biological target: Gal(b1-3)[Neu5Ac(a2-6)]GlcNAc
# Outline: (§1)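 Columns mapping to the same glycan were averaged after glycan names were converted to IUPAC-condensed notation. The data come from 3228 arrays in the Consortium for Functional Glycomics database, limited to those with an available protein sequence. Binding is reported as a within-array Z-score averaged across arrays of one protein sequence and across linkers.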
# [2] = biological target: Gal(b1-3)[Neu5Ac(a2-6)]GlcNAc(a1-4)Gal(b1-4)Glc
# Outline: as §1
# [3] = biological target: Gal(b1-3)[Neu5Ac(a2-6)]GlcNAc(b1-4)Gal(b1-4)Glc
# Outline: as §1
# [4] = biological target: Gal(b1-3)[Neu5Ac(b2-6)]GalNAc
# Outline: as §1
# [5] = biological target: Gal(b1-3)[Neu5Ac(b2-6)]GlcNAc
# Outline: as §1
# Gal(b1-4)Gal = biological target: Gal(b1-4)Gal
# Outline: as §1
# [6] = biological target: Gal(b1-4)GalNAc(a1-3)[Fuc(a1-2)]Gal(b1-4)GlcNAc
# Outline: as §1
# [7] = biological target: Gal(b1-4)GalNAc(b1-3)[Fuc(a1-2)]Gal(b1-4)GlcNAc
# Outline: as §1
# Gal(b1-4)Glc = biological target: Gal(b1-4)Glc
# Outline: as §1
# Gal(b1-4)Glc6S = biological target: Gal(b1-4)Glc6S
# Outline: as §1
# Gal(b1-4)GlcNAc = biological target: Gal(b1-4)GlcNAc
# Outline: as §1
# [8] = biological target: Gal(b1-4)GlcNAc(a1-6)Gal(b1-4)GlcNAc
# Outline: as §1
# Gal(b1-4)GlcNAc(b1-2)Man = biological target: Gal(b1-4)GlcNAc(b1-2)Man
# Outline: as §1
# [9] = biological target: Gal(b1-4)GlcNAc(b1-2)Man(a1-3)Man(b1-4)GlcNAc(b1-4)GlcNAc
# Outline: as §1
# [10] = biological target: Gal(b1-4)GlcNAc(b1-2)Man(a1-3)[Gal(b1-4)GlcNAc(b1-2)Man(a1-6)]Man(b1-4)GlcNAc(b1-4)GlcNAc
# Outline: as §1
# [11] = biological target: Gal(b1-4)GlcNAc(b1-2)Man(a1-3)[Gal(b1-4)GlcNAc(b1-2)Man(a1-6)]Man(b1-4)GlcNAc(b1-4)[Fuc(a1-6)]GlcNAc
# Outline: as §1
# [12] = biological target: Gal(b1-4)GlcNAc(b1-2)Man(a1-3)[Gal(b1-4)GlcNAc(b1-2)Man(a1-6)][Gal(b1-4)GlcNAc(b1-4)]Man(b1-4)GlcNAc(b1-4)[Fuc(a1-6)]GlcNAc
# Outline: as §1
# [13] = biological target: Gal(b1-4)GlcNAc(b1-2)Man(a1-3)[Gal(b1-4)GlcNAc(b1-2)Man(a1-6)][GlcNAc(b1-4)]Man(b1-4)GlcNAc(b1-4)[Fuc(a1-6)]GlcNAc
# Outline: as §1
# [14] = biological target: Gal(b1-4)GlcNAc(b1-2)Man(a1-3)[GlcNAc(b1-2)Man(a1-6)]Man(b1-4)GlcNAc(b1-4)GlcNAc
# Outline: as §1
# [15] = biological target: Gal(b1-4)GlcNAc(b1-2)Man(a1-3)[GlcNAc(b1-4)][Gal(b1-4)GlcNAc(b1-2)Man(a1-6)]Man(b1-4)GlcNAc(b1-4)GlcNAc
# Outline: as §1
# [16] = biological target: Gal(b1-4)GlcNAc(b1-2)Man(a1-3)[Man(a1-6)]Man(b1-4)GlcNAc(b1-4)GlcNAc
# Outline: as §1
# [17] = biological target: Gal(b1-4)GlcNAc(b1-2)Man(a1-6)Man(b1-4)GlcNAc(b1-4)GlcNAc
# Outline: as §1
# [18] = biological target: Gal(b1-4)GlcNAc(b1-2)Man(a1-6)[GlcNAc(b1-2)Man(a1-3)]Man(b1-4)GlcNAc(b1-4)GlcNAc
# Outline: as §1
# [19] = biological target: Gal(b1-4)GlcNAc(b1-2)Man(a1-6)[Man(a1-3)]Man(b1-4)GlcNAc(b1-4)GlcNAc
# Outline: as §1
# [20] = biological target: Gal(b1-4)GlcNAc(b1-2)[Gal(b1-4)GlcNAc(b1-4)]Man(a1-3)[Gal(b1-4)GlcNAc(b1-2)Man(a1-6)]Man(b1-4)GlcNAc(b1-4)GlcNAc
# Outline: as §1
# [21] = biological target: Gal(b1-4)GlcNAc(b1-2)[Gal(b1-4)GlcNAc(b1-4)]Man(a1-3)[Gal(b1-4)GlcNAc(b1-2)[Gal(b1-4)GlcNAc(b1-6)]Man(a1-6)]Man(b1-4)GlcNAc(b1-4)GlcNAc
# Outline: as §1
# [22] = biological target: Gal(b1-4)GlcNAc(b1-2)[Gal(b1-4)GlcNAc(b1-4)]Man(a1-3)[GlcNAc(b1-4)][Gal(b1-4)GlcNAc(b1-2)Man(a1-6)]Man(b1-4)GlcNAc(b1-4)GlcNAc
# Outline: as §1
# [23] = biological target: Gal(b1-4)GlcNAc(b1-2)[Gal(b1-4)GlcNAc(b1-4)]Man(a1-3)[GlcNAc(b1-4)][Gal(b1-4)GlcNAc(b1-2)[Gal(b1-4)GlcNAc(b1-6)]Man(a1-6)]Man(b1-4)GlcNAc(b1-4)GlcNAc
# Outline: as §1
# [24] = biological target: Gal(b1-4)GlcNAc(b1-2)[Gal(b1-4)GlcNAc(b1-6)]Man(a1-6)[Gal(b1-4)GlcNAc(b1-2)Man(a1-3)]Man(b1-4)GlcNAc(b1-4)GlcNAc
# Outline: as §1
# [25] = biological target: Gal(b1-4)GlcNAc(b1-2)[Gal(b1-4)GlcNAc(b1-6)]Man(a1-6)[Gal(b1-4)GlcNAc(b1-2)Man(a1-3)]Man(b1-4)GlcNAc(b1-4)[Fuc(a1-6)]GlcNAc
# Outline: as §1
# [26] = biological target: Gal(b1-4)GlcNAc(b1-2)[Gal(b1-4)GlcNAc(b1-6)]Man(a1-6)[GlcNAc(b1-4)][Gal(b1-4)GlcNAc(b1-2)Man(a1-3)]Man(b1-4)GlcNAc(b1-4)GlcNAc
# Outline: as §1
# [27] = biological target: Gal(b1-4)GlcNAc(b1-2)[Gal(b1-4)GlcNAc(b1-6)]Man(a1-6)[GlcNAc(b1-4)][Gal(b1-4)GlcNAc(b1-2)[Gal(b1-4)GlcNAc(b1-4)]Man(a1-3)]Man(b1-4)GlcNAc(b1-4)[Fuc(a1-6)]GlcNAc
# Outline: as §1
# [28] = biological target: Gal(b1-4)GlcNAc(b1-3)Gal(b1-3)GalNAc
# Outline: as §1
# [29] = biological target: Gal(b1-4)GlcNAc(b1-3)Gal(b1-3)GlcNAc
# Outline: as §1
# [30] = biological target: Gal(b1-4)GlcNAc(b1-3)Gal(b1-4)Glc
# Outline: as §1
# [31] = biological target: Gal(b1-4)GlcNAc(b1-3)Gal(b1-4)GlcNAc
# Outline: as §1
# [32] = biological target: Gal(b1-4)GlcNAc(b1-3)Gal(b1-4)GlcNAc(b1-2)Man(a1-3)[Gal(b1-4)GlcNAc(b1-3)Gal(b1-4)GlcNAc(b1-2)Man(a1-6)]Man(b1-4)GlcNAc(b1-4)GlcNAc
# Outline: as §1
binder,measurement,setting,value
"MGL1 (Mus musculus), P49300 (protein) MIYENLQNSRIEEKTQEPGKAPSQSFLWRILSWTHLLLFSLGLSLLLLVVVSVIGSQNSQLRRDLGTLRATLDNTTSKIKAEFQSLDSRADSFEKGISSLKVDVEDHRQELQAGRDLSQKVTSLESTVEKREQALKTDLSDLTDHVQQLRKDLKALTCQLANLKNNGSEVACCPLHWTEHEGSCYWFSESEKSWPEADKYCRLENSHLVVVNSLEEQNFLQNRLANVVSWIGLTDQNGPWRWVDGTDFEKGFKNWAPLQPDNWFGHGLGGGEDCAHITTGGPWNDDVCQRTFRWICEMKLAKES",glycan array binding signal (z-score),[1],-0.137
same,glycan array binding signal (z-score),[2],-0.125
same,glycan array binding signal (z-score),[3],0.273
same,glycan array binding signal (z-score),[4],0.779
same,glycan array binding signal (z-score),[5],-0.162
same,glycan array binding signal (z-score),Gal(b1-4)Gal,-0.627
same,glycan array binding signal (z-score),[6],0.018
same,glycan array binding signal (z-score),[7],-0.234
same,glycan array binding signal (z-score),Gal(b1-4)Glc,-0.136
same,glycan array binding signal (z-score),Gal(b1-4)Glc6S,-0.462
same,glycan array binding signal (z-score),Gal(b1-4)GlcNAc,-0.356
same,glycan array binding signal (z-score),[8],0.768
same,glycan array binding signal (z-score),Gal(b1-4)GlcNAc(b1-2)Man,-0.586
same,glycan array binding signal (z-score),[9],-0.403
same,glycan array binding signal (z-score),[10],-0.02
same,glycan array binding signal (z-score),[11],0.099
same,glycan array binding signal (z-score),[12],3.48
same,glycan array binding signal (z-score),[13],-0.015
same,glycan array binding signal (z-score),[14],-0.652
same,glycan array binding signal (z-score),[15],0.239
same,glycan array binding signal (z-score),[16],0.201
same,glycan array binding signal (z-score),[17],-0.551
same,glycan array binding signal (z-score),[18],-0.37
same,glycan array binding signal (z-score),[19],-0.449
same,glycan array binding signal (z-score),[20],-0.595
same,glycan array binding signal (z-score),[21],-0.108
same,glycan array binding signal (z-score),[22],-0.482
same,glycan array binding signal (z-score),[23],1.53
same,glycan array binding signal (z-score),[24],0.768
same,glycan array binding signal (z-score),[25],0.123
same,glycan array binding signal (z-score),[26],-0.006
same,glycan array binding signal (z-score),[27],-0.144
same,glycan array binding signal (z-score),[28],-0.176
same,glycan array binding signal (z-score),[29],0.058
same,glycan array binding signal (z-score),[30],0.046
same,glycan array binding signal (z-score),[31],0.348
same,glycan array binding signal (z-score),[32],2.62
